According to patent US20110257148A1, “NOVEL 1-ALKYL-3-HYDROXY-3-PHENYLAZETIDINE DERIVATIVES USEFUL AS MODULATORS OF CORTICAL CATECHOLAMINERGIC NEUROTRANSMISSION” (NSAB, FILIAL AF N[…] AB, SVERIGE, priority 2008, published 2011):

Test system: MK-801 pre-treated rats
Assay: Locomotor activity in MK-801 pre-treated rats (antipsychotic activity model)
Conditions: rats pre-treated with MK-801 0.7 mg/kg i.p. 90 minutes before test compound; test compound 100 μmol/kg; recorded between 30 and 60 minutes after administration

Row | SMILES | Locomotor activity, MK + example 100 μmol/kg [counts/30 min]
1 | CCCN1CC(O)(c2cccc(Cl)c2F)C1 [Example 6, 3-(3-Chloro-2-Fluorophenyl)-1-Propylazetidin-3-Ol] | 8968
2 | CCCN1CC(O)(c2cccc(F)c2F)C1 [Example 1, 3-(2,3-DIFLUOROPHENYL)-1-PROPYLAZETIDIN-3-OL] | 5493
